Reference: PMC4336329 (PLoS ONE, 2015)
The campaign covered roughly 310,000 compounds. About 14,000 (4.5%) showed an effect of 50% or more. The effect is printed as a negative number. Some of the results follow.

What follows are molecules tested against human ether-à-go-go-related gene (hERG) potassium channel (human, UniProt Q12809) (assay: primary screen, population patch clamp on CHO cells stably expressing hERG).
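Further: peak tail current of the secondary pulse compared with the same well before compound.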

Chain of human ether-à-go-go-related gene (hERG) potassium channel (Q12809 whole entry, looked up): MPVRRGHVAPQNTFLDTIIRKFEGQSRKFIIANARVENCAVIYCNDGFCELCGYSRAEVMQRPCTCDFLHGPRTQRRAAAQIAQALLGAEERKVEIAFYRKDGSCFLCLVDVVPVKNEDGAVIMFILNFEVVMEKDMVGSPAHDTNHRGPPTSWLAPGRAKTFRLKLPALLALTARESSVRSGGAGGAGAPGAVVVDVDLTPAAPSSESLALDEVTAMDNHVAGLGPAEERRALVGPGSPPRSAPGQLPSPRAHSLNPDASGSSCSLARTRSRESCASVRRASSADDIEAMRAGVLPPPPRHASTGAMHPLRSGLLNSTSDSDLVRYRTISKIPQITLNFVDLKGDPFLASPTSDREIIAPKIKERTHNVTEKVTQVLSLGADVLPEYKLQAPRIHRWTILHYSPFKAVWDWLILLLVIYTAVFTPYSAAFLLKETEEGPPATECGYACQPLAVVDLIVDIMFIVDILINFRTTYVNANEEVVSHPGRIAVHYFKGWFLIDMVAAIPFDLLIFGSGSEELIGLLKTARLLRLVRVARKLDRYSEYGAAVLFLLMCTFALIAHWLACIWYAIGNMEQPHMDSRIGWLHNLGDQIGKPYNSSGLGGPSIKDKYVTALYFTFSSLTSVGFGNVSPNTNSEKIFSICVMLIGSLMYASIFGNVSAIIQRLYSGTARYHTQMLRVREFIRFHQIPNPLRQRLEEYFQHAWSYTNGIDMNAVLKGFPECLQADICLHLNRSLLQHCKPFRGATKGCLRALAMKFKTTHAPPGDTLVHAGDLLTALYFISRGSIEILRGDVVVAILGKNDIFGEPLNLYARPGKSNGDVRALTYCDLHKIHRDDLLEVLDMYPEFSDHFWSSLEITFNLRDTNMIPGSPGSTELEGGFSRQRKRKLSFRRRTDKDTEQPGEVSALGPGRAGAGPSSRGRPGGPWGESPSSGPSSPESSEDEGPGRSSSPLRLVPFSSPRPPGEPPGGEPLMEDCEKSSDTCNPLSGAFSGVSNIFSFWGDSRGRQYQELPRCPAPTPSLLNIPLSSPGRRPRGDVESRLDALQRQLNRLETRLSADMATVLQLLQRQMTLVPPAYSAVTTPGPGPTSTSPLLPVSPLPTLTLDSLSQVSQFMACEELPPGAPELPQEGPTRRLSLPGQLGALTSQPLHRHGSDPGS

SMILES | hERG current change (%, negative = inhibition) at 10uM [%]
CCOC(=O)c1cnc2c(c(C)nn2C)c1Oc1ccc(Cl)cc1 | -4.44
COc1ccc(N2CCCC2)c(NC(=O)c2ccc([N+](=O)[O-])o2)c1 | 14
COC(=O)c1ccc(/C=C(\C#N)c2nc3ccccc3s2)cc1 | 7.58
Cc1ccc(CN(c2ccc(C(=O)N3CCOCC3)cc2)S(C)(=O)=O)cc1 | -8.81
Cc1cc(C(=O)N(C)CC(=O)Nc2ccc(F)c(F)c2F)no1 | 21.4
Cc1csc(C(C#N)C(=O)c2ccc(S(=O)(=O)N3CCCC3)cc2)n1 (centres unmarked) | 5.45
CN(Cc1ccc(F)cc1)C(=O)c1cccc(S(=O)(=O)N2CCN(c3ccc(F)cc3)CC2)c1 | -34.6
CSc1cnc2c(=O)[nH]c(=O)n(C)c2n1 | 2.97
CCC(NC(=O)CCc1nnc(-c2cc(C)on2)o1)C12CC3CC(CC(C3)C1)C2 (centres unmarked) | 10.7
CC1(c2nnc(-c3ccc(Cl)cc3)o2)CC(c2ccc(Cl)cc2)=NO1 (centres unmarked) | -8.01
CCC(C)(C)NC(=O)C(c1ccc(OC)cc1)N(CCOC)C(=O)CCC(=O)Nc1nccs1 (centres unmarked) | 0.428
COC(CNC(=O)c1ccc(CS(=O)(=O)c2ccc(Br)cc2)o1)OC | 3.41
CCOCC(=O)Nc1nnc(COc2ccc(Cl)cc2)s1 | 0.0563
Cc1c(CCC(=O)NCCCN2CCCC2=O)c(=O)oc2c(C)c(O)ccc12 | 13.6
N#CCCN(Cc1cccs1)C(=O)Nc1ccccc1 | 11.8
S=C(NCc1cccs1)Nc1ccccc1Cl | 9.58
O=C(N/N=C\C=C\c1ccco1)C1COc2ccccc2O1 (centres unmarked) | 5.7
Fc1cccc(F)c1/C=N/Nc1ccccn1 | 22.9
Cc1ccccc1NC(=O)Cc1nc(CCl)cs1 | 24.6
COc1ccc(CNC(=O)c2ccc(S(=O)(=O)NCc3ccco3)cc2)cc1 | -11.4
COc1cccc(CNC(=O)[C@H](CCSC)NC(=O)N2CCn3c2nc2ccccc23)c1 | -31.1
O=C(Nc1ccc(F)cc1)c1c(O)c2c(n(Cc3ccccc3)c1=O)CCCC2 | 4.71
O=C(OCC(=O)N1CCOCC1)c1ccc2c(c1)OCCO2 | 1.71

SMILES | hERG current change (%, negative = inhibition) at 10uM [%]
CC1(C)CC(N2CCN(CCO)CC2)=CC(=S)N1 | 19.3
CCOc1cc(C=O)ccc1OCCCN1C(=O)NC(C)(C)C1=O | 12.4
Cn1cc(CNC(=O)COc2ccc(Cl)cc2Cl)cn1 | 5.68
COc1cc(S(=O)(=O)NCCCN2CCOCC2)ccc1-n1cnnn1.O=C(O)C(=O)O | 11
Nc1ccc(C(=O)C(=O)c2ccccc2)cc1 | 9.89
COc1ccc(CNN2CCCCC2C(=O)Nc2ccc(OC)c(OCC(C)C)c2)cc1OC (centres unmarked) | -34.4
COc1ccc(-c2ccc(SCC(=O)c3ccc(F)cc3)nn2)cc1OC | -13.7
O=C(CSc1nnc(-c2ccncc2)n1-c1ccc(F)cc1)NNC(=O)c1cccc(O)c1 | 11.1
O=C1CC(C(=O)N2CCC(N3CCC(C(=O)NC4CC4)CC3)CC2)c2ccccc21 (centres unmarked) | -5.42
O=C1c2ccccc2NC(c2ccc(Cl)cc2Cl)N1O (centres unmarked) | 6.79
COc1ccccc1-c1nnc(-c2ccc(F)cc2)o1 | -25.4
Cc1ccc(S(=O)(=O)N(CCC(=O)Nc2ccc(OC(F)(F)F)cc2)c2ccccc2)cc1 | -14
Cc1ccc2[nH]c(C(=O)N3CCCC(Nc4ccc(F)cc4)C3)cc2c1 (centres unmarked) | -3.73
Cc1ccc(S(=O)(=O)c2cn(C)c3cc(N4CCN(C)CC4)c(F)cc3c2=O)cc1 | -28.4
O=C(Nc1ccc(Cl)cc1)C1CCCN(c2ncnc3c2nc2n3CCCCC2)C1 (centres unmarked) | -50.1
CCN(CC)CCN1C(=O)c2oc3ccccc3c(=O)c2C1c1ccc(F)cc1 (centres unmarked) | -16.3
CCN1CCCC1CNC(=O)c1ccc(Sc2ccccc2Cl)c([N+](=O)[O-])c1 (centres unmarked) | -64.1
CCn1cc(-c2csc(N)n2)c(C)n1 | 34.1
CC(=O)Nc1ccc(CN2CCN(C3CCCC3)C(CCO)C2)cc1 (centres unmarked) | -1.63
CC(=O)Nc1ccccc1C(=O)OCC(=O)c1ccc2c(c1)OCCO2 | -1.71
Cc1ccccc1NC(=O)CCN1C(=O)c2ccccc2C1=O | 12.8
COC(=O)C(C)Sc1ccc2nnc(CCNS(=O)(=O)c3ccccc3)n2n1 (centres unmarked) | 5.58
CN(C)S(=O)(=O)c1cccc(NC(=O)c2cc3ccccc3o2)c1 | -13.7

SMILES | hERG current change (%, negative = inhibition) at 10uM [%]
O=C(Cc1ccccc1)NC(Nc1cccc2ccccc12)C(Cl)(Cl)Cl (centres unmarked) | 1.45
CCN(CC)CCCNC(=O)c1ccc(OCC(=O)Nc2ccccc2C(F)(F)F)c(OC)c1 | -70.5
COc1ccc(NC(C)=O)cc1NC(=O)CSc1nc2ncccc2[nH]1 | -1.79
O=C(c1cc(-c2ccc(Cl)cc2)n[nH]1)N1CCN(C(=O)c2ccco2)CC1 | -68.9
Cc1nc(Nc2nc(CSc3ccc(Cl)cc3)cc(=O)[nH]2)nc2ccccc12 | -19.4
O=S1(=O)CCN2C=C(Cl)C=C(Cl)C2=N1 | 13.8
CC1CC(C)CN(C(=O)c2cc3c(s2)CCC3)C1 (centres unmarked) | -3.28
CC(=O)c1c(C)n(-c2ccccc2)c2ccc(OCC(O)CN3CCOCC3)cc12 (centres unmarked) | -7.16
COc1cccc(NC(=O)CSc2nc3c(sc4ccccc43)c(=O)n2CCN(C)C)c1.Cl | -65.5
Cc1ccc(CSc2nc3nc(C)cc(C)c3c(=O)[nH]2)cc1 | -30.1
Cc1cc(-c2nnc(SCC(=O)Nc3ccc(F)c(F)c3)n2N)n[nH]1 | -1.95
CCOC(=O)c1ccc(N=NN(C)C)cc1 | 4.38
O=C(N/N=C/c1c[nH]c2ccccc12)c1cc2ccccc2o1 | 0.529
Brc1ccc(-c2nnc(-c3cccnc3)c3conc23)cc1 | 7.82
Br.CCc1ccc(C2=CSC3=NCCN23)cc1 | -14.7
Cc1cccn2c(=O)c3cc(C(=O)NCC4CCCO4)c(=N)n(CC4CCCO4)c3nc12 (centres unmarked) | -81.9
CN(Cc1nccn1C)C(=O)CC1C(=O)NCCN1CC(c1ccccc1)c1ccccc1 (centres unmarked) | -3.81
COc1ccccc1CC1CC(=O)N(c2ccccc2)C1=O (centres unmarked) | 13.6
CN(C)c1nc2ccccc2c(N)c1-c1ccccc1.O=C(O)C(=O)O | -65.9
COCC(=O)OCC(=O)Nc1cc(C)c(C)cc1[N+](=O)[O-] | 5.19
Cl.O=C(c1ccc(F)cc1F)N(Cc1ccccn1)Cc1ccco1 | -17.1
Cn1c2ccc(CC(=O)O)cc2c2cc(CC(=O)O)ccc21 | 9.54
CC(=O)Oc1ccc2occ(/C=N/c3cc(=O)[nH]c(=S)[nH]3)c(=O)c2c1 | 24.9

SMILES | hERG current change (%, negative = inhibition) at 10uM [%]
O=C(Cc1ccccc1)Nc1nc(-c2ccc(F)c(F)c2)cs1 | 20.1
COc1ccc(OC)c(CN(CCCN2CCOCC2)C(=O)Nc2ccccc2)c1 | -25
CCN(CC)S(=O)(=O)c1cc([N+](=O)[O-])ccc1N=Nc1c(O)[nH]c2ccccc12 | 36.4
COc1ccc2[nH]c3c(c2c1)CCNC3 | 14.9
COc1ccc(-n2c(C(C)n3nc(C)c([N+](=O)[O-])c3C)n[nH]c2=S)cc1 (centres unmarked) | 14.2
COC(C/C=C/[C@H](O)[C@H](C)OCc1ccccc1)OC | 8.44
COc1ccc(OC(C)C(=O)NCCC2=CCCCC2)cc1 (centres unmarked) | 1.23
COc1cccc(C(=O)Nc2c3c(nc4c2CCC4)CCCC3)c1 | -23.9
CCN(CC)CCN1C(=O)C(=O)/C(=C(/O)c2ccccc2)C1c1ccccc1F (centres unmarked) | -1.61
Cc1ccc(C2=NN(CC(=O)NCCN(C)C)C(=O)CC2)cc1 | -44.9
CCC1CO/C(=C(\C(Cl)=C(Cl)Cl)[N+](=O)[O-])N1Cc1ccc(Cl)nc1 (centres unmarked) | -48.9
CCCN(CC(=O)Nc1ccccc1C)C(=O)c1ccc(C(=O)c2ccccc2)cc1 | -25.9
CCCCN(C(=O)c1ccc2c(c1)NC(=O)CS2)c1ccccc1 | -24
COCc1nnc(NC(=O)C2CC(=O)N(CCc3ccc(F)cc3)C2)s1 (centres unmarked) | 19.7
COc1ccc(OC)c(C(=O)c2coc3ccc(O)c(CN4CCOCC4)c23)c1 | -39.7
Cc1ccc(SCCC(=O)OCC(=O)Nc2ncc(Cl)cc2Cl)cc1 | -3.86
C=CCN1C(=O)N/C(=C/c2ccccc2OCC(=O)Nc2ccc(F)cc2)C1=O | -1.92
CCCn1nnnc1SCC(=O)NCc1cccs1 | 5.97
CNc1ccccc(C(=O)/C=C/c2ccccc2OC)c1=O | 2.39
COc1cccc(CNCCc2ccccc2)c1OC.Cl | 5.21
